This note sets out measurements from article PMC4336329 (PLoS ONE, 2015).

Out of some 310,000 compounds screened, about 14,000 (4.5%) showed an effect of 50% or more. The effect is printed as a negative number. This is one part of the list.
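Further: peak tail current of the secondary pulse compared with the same well before compound.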

This assay deals with human ether-à-go-go-related gene (hERG) potassium channel (human, UniProt Q12809). Put plainly: primary screen, population patch clamp on CHO cells stably expressing hERG.
Sequence of human ether-à-go-go-related gene (hERG) potassium channel (Q12809 whole entry, looked up): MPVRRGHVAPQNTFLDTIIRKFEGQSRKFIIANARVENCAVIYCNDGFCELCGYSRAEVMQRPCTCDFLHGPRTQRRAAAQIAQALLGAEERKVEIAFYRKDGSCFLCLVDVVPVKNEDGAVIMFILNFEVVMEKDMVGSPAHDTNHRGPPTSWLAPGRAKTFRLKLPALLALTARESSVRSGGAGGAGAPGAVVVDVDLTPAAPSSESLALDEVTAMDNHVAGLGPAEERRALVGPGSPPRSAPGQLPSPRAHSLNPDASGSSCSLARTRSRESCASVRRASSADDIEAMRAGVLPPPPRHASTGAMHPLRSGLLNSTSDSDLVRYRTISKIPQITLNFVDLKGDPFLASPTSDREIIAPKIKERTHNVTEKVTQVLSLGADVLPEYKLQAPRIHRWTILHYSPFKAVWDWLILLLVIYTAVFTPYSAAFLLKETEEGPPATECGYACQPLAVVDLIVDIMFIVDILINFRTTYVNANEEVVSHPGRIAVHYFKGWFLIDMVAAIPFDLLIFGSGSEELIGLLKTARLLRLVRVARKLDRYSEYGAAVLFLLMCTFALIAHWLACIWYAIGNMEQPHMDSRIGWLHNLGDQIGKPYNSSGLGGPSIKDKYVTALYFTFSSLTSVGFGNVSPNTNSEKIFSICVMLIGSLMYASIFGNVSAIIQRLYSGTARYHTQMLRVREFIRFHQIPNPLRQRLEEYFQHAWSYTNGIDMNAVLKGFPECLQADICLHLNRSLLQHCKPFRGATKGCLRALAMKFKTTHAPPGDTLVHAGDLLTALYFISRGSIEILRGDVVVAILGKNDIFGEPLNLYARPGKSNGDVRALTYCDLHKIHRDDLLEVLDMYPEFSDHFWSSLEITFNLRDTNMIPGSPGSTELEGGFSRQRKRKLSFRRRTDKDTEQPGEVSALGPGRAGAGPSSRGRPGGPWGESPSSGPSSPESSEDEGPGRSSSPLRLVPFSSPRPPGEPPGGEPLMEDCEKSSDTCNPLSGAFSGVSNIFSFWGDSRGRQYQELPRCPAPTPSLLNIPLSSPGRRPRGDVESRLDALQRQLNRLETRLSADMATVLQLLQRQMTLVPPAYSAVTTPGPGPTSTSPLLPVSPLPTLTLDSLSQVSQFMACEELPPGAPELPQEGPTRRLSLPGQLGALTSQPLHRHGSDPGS
On to `COc1cnc(-c2ccccn2)nc1Oc1ccccc1`, for which the “hERG current change (%, negative = inhibition) at 10uM” value is given as -72.8%.

In the case of `S=C(NCc1ccccc1)N1CCn2cccc2C1c1ccncc1` (stereo not shown), the “hERG current change (%, negative = inhibition) at 10uM” value is -8.44%.

Consider `Cc1ccccc1OCC1CN(CN2CCOCC2)C(=O)O1` (stereo not shown), for which the “hERG current change (%, negative = inhibition) at 10uM” value is 1%.

For the compound `CCS(=O)(=O)c1nn2c(N)c(/C=C3/C=CC(=O)C(OC)=C3)c(=O)nc2s1`, the “hERG current change (%, negative = inhibition) at 10uM” value turned out to be 19.9%.

With `Cc1cc(C)c2c(SC(C)C)nc(N)nc2n1`, the “hERG current change (%, negative = inhibition) at 10uM” value was -4.12%.

For `CCOC(=O)c1cnc2sc3c(n2c1=O)CCCC3`, the “hERG current change (%, negative = inhibition) at 10uM” value is given as -9.95%.

Consider `COc1ccc(OCC(O)CON2C(=O)c3ccccc3C2=O)cc1` (stereo not shown), for which the “hERG current change (%, negative = inhibition) at 10uM” value is -20.2%.

In the case of `CCCCCSc1cc(O)c(C(CNC)C(C)C)cc1OC.O=C(O)/C=C\C(=O)O` (stereo not shown), the “hERG current change (%, negative = inhibition) at 10uM” value is -12.9%.

In the case of `Cn1cnnc1SCC(=O)N/N=C/c1ccc(OCC(N)=O)cc1`, the “hERG current change (%, negative = inhibition) at 10uM” value amounted to 14%.

As to `CCOc1c(Cl)cc(CNCC(C)C)cc1Cl.Cl`, the “hERG current change (%, negative = inhibition) at 10uM” value is reported as -4.82%.

As to `O=[N+]([O-])c1cccc(-c2ccn[nH]2)c1`, the “hERG current change (%, negative = inhibition) at 10uM” value was found to be 10.5%.

Turning to `CCOC(=O)N1CCN(C(=O)C2CCCN(Cc3nc(-c4ccc(Cl)cc4)oc3C)C2)CC1` (stereo not shown), the “hERG current change (%, negative = inhibition) at 10uM” value is given as -70.9%.

For `COC(=O)CC1C(=O)NC2CCCCC2N1C(=O)CCl` (stereo not shown), the “hERG current change (%, negative = inhibition) at 10uM” value is 14.9%.

Regarding `Cc1cccc(NC(=O)CN2C(=O)N/C(=C/c3ccc(C)s3)C2=O)c1`, the “hERG current change (%, negative = inhibition) at 10uM” value was 8.71%.

As for `CC(OC(=O)C1CCN(S(=O)(=O)c2ccc(F)cc2)CC1)C(=O)NC1CCCCC1C` (stereo not shown), the “hERG current change (%, negative = inhibition) at 10uM” value is 7.77%.

For the compound `CC(C(=O)Nc1ccc(S(N)(=O)=O)cc1)N1CCc2ccccc21` (stereo not shown), the “hERG current change (%, negative = inhibition) at 10uM” value stood at 10.3%.

For `COc1ccc(Cn2c(=S)[nH]c3cc(C(=O)N4CCCCC4)ccc3c2=O)cc1`, the “hERG current change (%, negative = inhibition) at 10uM” value is 13.3%.

On to `c1ccc(-c2nc3c(ccc4ccccc43)[nH]2)nc1`, for which the “hERG current change (%, negative = inhibition) at 10uM” value stood at 0.315%.

For the compound `O=C(NN1CCOCC1)C12CC3CC(CC(C3)C1)C2`, the “hERG current change (%, negative = inhibition) at 10uM” value was found to be 7.45%.

Take `COc1ccccc1C(=O)Oc1cc(N)n(S(=O)(=O)c2ccc(C)cc2)n1`: the “hERG current change (%, negative = inhibition) at 10uM” value was -7.77%.

In the case of `CCN1CCN(CCOc2cccc(Oc3ccccc3)c2)CC1.O=C(O)C(=O)O`, the “hERG current change (%, negative = inhibition) at 10uM” value is -61.1%.

Consider `Cc1ccc(C(=O)CSc2nc(-c3ccccc3)ccc2C#N)cc1`, for which the “hERG current change (%, negative = inhibition) at 10uM” value is recorded as 2.56%.

As for `O=C(c1cccc(S(=O)(=O)N2CCCCC2)c1)N1CCN(c2ccccc2)CC1`, the “hERG current change (%, negative = inhibition) at 10uM” value is given as -73.1%.

Turning to `O=C(Nc1ccccc1C(=O)NC(Cc1ccccc1)C(=O)NC1CCCCC1)c1ccccc1` (stereo not shown), the “hERG current change (%, negative = inhibition) at 10uM” value turned out to be 0.583%.

Consider `COc1ccc(NS(=O)(=O)c2cccc(C(=O)NNC(=O)CNC(=O)c3ccccc3)c2)cc1`, for which the “hERG current change (%, negative = inhibition) at 10uM” value came out at 13.4%.
